This test addresses T1, MC4R-H158R, P32245.
T1 chain: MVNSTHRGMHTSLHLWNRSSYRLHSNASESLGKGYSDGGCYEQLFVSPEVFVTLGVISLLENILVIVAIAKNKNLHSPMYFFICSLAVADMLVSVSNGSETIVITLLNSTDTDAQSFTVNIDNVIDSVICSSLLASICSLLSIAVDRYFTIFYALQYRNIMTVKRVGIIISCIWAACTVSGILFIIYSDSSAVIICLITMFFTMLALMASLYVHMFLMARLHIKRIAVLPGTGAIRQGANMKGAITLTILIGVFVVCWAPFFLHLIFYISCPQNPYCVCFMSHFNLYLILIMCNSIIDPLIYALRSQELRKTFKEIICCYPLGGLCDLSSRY
In words: FRET or BRET; NanoBRET in living HEK293 cells co-transfected with a NanoLuc fusion (donor; written as binder) and a HaloTag fusion (acceptor, ligand 618; written as target), NL/HT DNA ratio 1:5; BRET ratio in mBU after subtraction of the no-acceptor control; delta BRET = chimera minus MC4R-WT homodimer. To be noted: remark: other sources report otherwise. A general note: BRET reads energy transfer from a luciferase to a nearby fluorophore.

B1: MC4R-H158R, P32245 1-332 (receptor)
chain: MVNSTHRGMHTSLHLWNRSSYRLHSNASESLGKGYSDGGCYEQLFVSPEVFVTLGVISLLENILVIVAIAKNKNLHSPMYFFICSLAVADMLVSVSNGSETIVITLLNSTDTDAQSFTVNIDNVIDSVICSSLLASICSLLSIAVDRYFTIFYALQYRNIMTVKRVGIIISCIWAACTVSGILFIIYSDSSAVIICLITMFFTMLALMASLYVHMFLMARLHIKRIAVLPGTGAIRQGANMKGAITLTILIGVFVVCWAPFFLHLIFYISCPQNPYCVCFMSHFNLYLILIMCNSIIDPLIYALRSQELRKTFKEIICCYPLGGLCDLSSRY
On to B1, for which the Relative Dimerization Compared to WT (delta BRET) is -28.9.

Source of the values: publication PMC9405727, “A Setmelanotide-like Effect at MC4R Is Achieved by MC4R Dimer Separation” (Biomolecules, 2022).
